# According to article PMC10668032:
# This is one part of the list. At the low end of the ranking the order means little.
# Biological target: SIX1-Q177R homeodomain (UniProt Q15475)
# Experiment: universal protein binding microarray
# Conditions: Universal all-10-mer PBM (8x60K, AMADID 030236), 300 nM GST-tagged protein, Alexa Fluor 488 anti-GST; buffer, salt, pH and temperature not stated; high values mean tight binding; most listed sequences are background and not binding sites; double strand, one strand shown
row,Sequence,binding signal [E-score]
1,GTCTTAAA,-0.04
2,ACAATACA,0.194
3,AAAAATGG,-0.185
4,GAAACTCA,-0.282
5,CGATTACG,0.121
6,TCATATGA,0.073
7,CAACGGTC,-0.177
8,GGAGGACC,-0.198
9,AAAGTCTC,-0.185
10,CCCTCTTC,-0.0766
11,GATCTAAA,-0.209
12,CTCGTATC,0.0229
13,ATTTCTCG,-0.0917
14,AAGAGTGA,0.0402
15,ATCGTACC,-0.0381
16,AAATTAGG,-0.168
17,AACGTAAC,0.0085
18,CACGAGGG,0.189
19,GGAAGGCA,-0.138
20,GGAATGTA,-0.0614
21,CGGGCGAA,-0.103
22,CACTGCGC,0.0832
23,CATCGGCG,0.00039
24,CAACAGTA,-0.23
25,AACGTGGG,-0.18

row,Sequence,binding signal [E-score]
1,ACATCTCT,0.153
2,CCGGGCCC,-0.0568
3,GATCGGGA,-0.0452
4,ATTTTGTG,0.0615
5,AATTCCCT,-0.124
6,ATCAGGTA,0.0475
7,CAGGAACC,-0.117
8,GGTCGGCA,0.0392
9,AATGAATG,-0.198
10,ATACCAAA,0.114
11,TACGTGCA,0.032
12,TGCTAACA,0.0666
13,CTTCGCCA,-0.184
14,ATAACGTG,0.139
15,ATTATATG,-0.0371
16,AACGAACA,0.208
17,AGTTGTTG,-0.263
18,ATGTGCTG,-0.156
19,CCCCGTGA,0.0655
20,GGGACCAC,0.041
21,ACGTATGA,-0.135
22,CAAAGATC,-0.121
23,AATGGAGA,0.00277
24,TAGGCGAA,-0.0539
25,CCCACACA,0.134

row,Sequence,binding signal [E-score]
1,CTAAGGAA,-0.181
2,GTCCTTCA,0.0531
3,ATAAGCAA,-0.0358
4,ACCTCGCG,0.00558
5,CACCCTTC,0.31
6,TAAACCCA,0.0749
7,ACCGTGCT,0.0925
8,AGGCAGAA,-0.152
9,AATCCTAT,-0.22
10,CTGATTCA,-0.0785
11,CGCGGGCC,-0.061
12,TCCTGCCA,-0.0205
13,ACTGCCTA,-0.122
14,GTTTTCCA,-0.0214
15,AGGCAACG,-0.0625
16,CCGCAAGC,-0.186
17,CCATCTGA,0.103
18,CACCGCAA,0.284
19,GAACCACA,-0.0335
20,ACAGAGCC,-0.312
21,GGTGTGAC,0.435
22,GAGGTGTA,0.466
23,GCGCGGCC,-0.324
24,GTCATTTA,-0.048
25,CCTTTACG,0.0293

row,Sequence,binding signal [E-score]
1,CGTAATAA,-0.114
2,GAATAGAC,-0.192
3,AGCCGCCG,-0.238
4,GGACCACC,-0.06
5,GACGCGCC,0.0406
6,CATCGATA,-0.052
7,TCGGCCAA,-0.256
8,ACGAGGCT,0.0205
9,CCGCGTTC,0.0678
10,GTTTAGTA,0.0263
11,GAGTGAGC,0.0692
12,CCAGAACA,0.261
13,GCCCAGCC,-0.0771
14,CGTCCGGC,0.0615
15,AAGCAATG,0.135
16,AAATATGG,-0.0799
17,GATTGTTA,0.107
18,AATACTTC,-0.198
19,GCTGGGAA,-0.12
20,AGAGGGCC,-0.287
21,CAATGAAA,-0.246
22,CTAATCGC,-0.106
23,CCTAGGAG,0.123
24,AAGCCGTG,0.0483
25,ATCATTCG,-0.171

row,Sequence,binding signal [E-score]
1,CCATTCAA,0.112
2,ACAATACG,-0.102
3,CTCTGGAC,-0.158
4,ACGTACTA,-0.0389
5,GCTCAGCC,-0.149
6,AAAAAAAG,-0.0847
7,AATATGAC,0.12
8,AGACAAAA,-0.216
9,TCCCAGAA,-0.0942
10,ACATAGCC,-0.0606
11,CACCCAAA,0.255
12,CCTCTACG,0.0541
13,GCGCATAC,0.00625
14,CAAATACC,-0.157
15,ATTATAAG,-0.152
16,CAGGTTAA,0.0854
17,AAGTCCAT,0.0108
18,CCCAACTC,0.0389
19,TACGGCCA,-0.247
20,ACAGACAG,-0.087
21,CAAGCGGA,0.00792
22,AAGCGCGG,-0.000695
23,AATGTTTC,-0.286
24,GAATCTGA,0.149
25,CCCGTTAC,0.024

row,Sequence,binding signal [E-score]
1,AGCTCCAA,-0.196
2,AGGCCTCG,-0.227
3,GTCGTAGA,-0.115
4,GCTTCTCC,-0.206
5,GGTATCAC,0.399
6,CCGTGGCC,-0.0282
7,CTATATAA,-0.151
8,ATGAATGG,-0.241
9,ATGATGTG,-0.25
10,GAACCATC,-0.254
11,TCTGAAGA,-0.119
12,CGTTTCCC,-0.171
13,CCCATCTC,0.0316
14,AGTTCGGC,-0.109
15,TGGCCGAA,-0.0823
16,CAACACGA,0.328
17,CCTTGGTA,-0.0495
18,GGTCGAAC,0.228
19,AGAGGCCC,-0.229
20,CTCCGCGC,-0.0047
21,ATGGTGGA,0.0419
22,CAATAGTC,-0.184
23,GCCCGTTA,-0.0643
24,CACGGTTC,0.169
25,ACTTGAGC,-0.198

row,Sequence,binding signal [E-score]
1,CCTCGTAG,-0.00971
2,CCTTCGCC,0.0126
3,CAATGTCG,-0.053
4,CACCTCAC,0.354
5,ACCGTGAG,0.0809
6,CGGTGAGC,-0.016
7,CCTTTAGA,0.0195
8,CTAGCGAG,-0.112
9,AAGTGTAT,0.317
10,TCAACAAA,0.0214
11,CCGGCGGA,0.129
12,CCAAGGCG,0.0015
13,ACTCGACA,0.226
14,AACACTAT,0.295
15,ATACGTAA,-0.33
16,AACATCCG,0.0408
17,GCTACCCA,0.0437
18,ATTTGTGG,-0.0213
19,CCCGGAAC,0.099
20,AAAAAAGA,-0.131
21,GGTCCCGA,-0.141
22,TCCGGACA,0.107
23,CGCCGACA,0.209
24,AGTTTGGG,-0.0462
25,CGTCCCAC,0.0541

row,Sequence,binding signal [E-score]
1,CAAGCTGG,0.00327
2,GTACCGTA,-0.082
3,CCCTCTTA,-0.0686
4,CTCCCGCA,0.155
5,GTATTTCA,-0.0378
6,AATCATCA,-0.305
7,CACGTGCG,0.171
8,CCAACTAA,-0.108
9,TGCGGAAA,-0.116
10,ATGTACTG,-0.135
11,GTAGATGA,-0.0743
12,AAATACGC,-0.117
13,GTTCAGTA,0.107
14,CATACATG,0.0434
15,GTAGGAAC,0.00405
16,AAGATCGT,-0.171
17,CTCGTCTA,-0.181
18,AGAACTAA,-0.0717
19,GCTACTCC,0.113
20,GGAGTACC,0.218
21,ACGTATTC,0.127
22,GACTCGCC,0.0639
23,ACTCCAGG,0.228
24,CGATTCAA,-0.164
25,ACCGCTCT,-0.0829

row,Sequence,binding signal [E-score]
1,CATATATG,-0.0473
2,AGTTTCTG,-0.0192
3,GCTTCCAA,-0.235
4,ATGAGCAC,0.108
5,TAGGGACA,0.0681
6,CGGTTGCA,-0.0304
7,ATCTCCCA,-0.0873
8,GTCGAGGA,-0.0114
9,CGATCCGA,0.03
10,GGATAAAA,0.0625
11,CATGGCTA,-0.132
12,CACTTCAC,0.154
13,GAACATCA,-0.349
14,ACCGACAC,0.425
15,CCATCCGA,0.0548
16,GGGTCCAC,0.164
17,AAGCCCGC,0.0149
18,AGTTAGAG,-0.163
19,CACAGTAC,0.11
20,GGCCCAAA,-0.112
21,CCTCACTC,-0.059
22,CGGGGATA,0.202
23,CATCCCAC,-0.162
24,ATGAGGTC,-0.143
25,CAATCTCA,-0.0571

row,Sequence,binding signal [E-score]
1,AAGGGCGA,-0.198
2,CCCCAAGC,0.228
3,CTGCCCTA,-0.0917
4,GGTCCCAC,0.141
5,ACCCCTTC,0.243
6,CAGAACTA,-0.15
7,TCCAACGA,-0.206
8,AGGACACC,0.484
9,GGTCCAAC,-0.0925
10,CATGGATA,0.0901
11,GCGTCCCA,-0.115
12,CTCGGCAC,0.194
13,ACATAGAC,-0.0858
14,AACAAGAA,-0.14
15,GTGAGAAA,-0.0648
16,GACGACTA,-0.101
17,AAAAGACA,0.12
18,TGGGTCAA,0.122
19,CCCCTACA,0.279
20,AACTACAA,0.134
21,CCTCTCAA,0.0339
22,CCTATACC,0.0409
23,ACTGTCGA,0.0829
24,GAAGAAGC,-0.245
25,CTATCACC,-0.0237

row,Sequence,binding signal [E-score]
1,CACCAGAG,0.195
2,AAGGCTCA,-0.155
3,GGCCTAAC,-0.071
4,CATGGGGG,0.217
5,ATGAGCGG,-0.23
6,CGTGACGC,0.051
7,AGGGTATC,0.363
8,CACCGAAC,0.335
9,CCTCCTAC,0.135
10,CCTTAATC,-0.00722
11,CGAAATGA,-0.227
12,AACCTAGA,-0.158
13,ACGGGTCT,0.0146
14,AGTTGAAC,-0.00728
15,GCACTCGC,-0.0479
16,ATTTAGGC,-0.169
17,ACAATGCT,-0.0494
18,GCGTGACA,0.254
19,AAGCGAAG,-0.142
20,CCTGTCCC,-0.105
21,ATACGCAA,-0.125
22,AATGTACA,0.104
23,CGTCGCAC,0.0462
24,GGGATCTA,0.125
25,TGCTGCCA,-0.0255

row,Sequence,binding signal [E-score]
1,CTAGAGAA,-0.0106
2,GGCTCGAA,-0.222
3,ATCATGAG,0.00787
4,GACACCAA,0.475
5,AAAATGAT,-0.185
6,AATGAGTG,0.0655
7,ACACTCAG,0.387
8,CATCTGGC,-0.251
9,CTTCGACC,-0.116
10,CGTGACCC,0.211
11,GCAAATGA,-0.146
12,CGGCGTAC,0.209
13,ACGACCTA,0.043
14,CCTACGAA,-0.0085
15,GGCTTATA,-0.307
16,TACGCTAA,-0.0402
17,AGACCTAT,-0.265
18,ATAGTACA,0.312
19,CGGGACTC,0.0466
20,TCCCACAA,-0.0946
21,ATAGTCAC,0.0358
22,AATACCGG,0.0689
23,AAGCTGCA,-0.171
24,ATTCGGCG,-0.0858
25,CATGAAAG,-0.0869

row,Sequence,binding signal [E-score]
1,AATTTCCC,-0.249
2,GACGGCGC,-0.0872
3,CCTGACAC,0.452
4,ACGCAGGA,-0.0285
5,AATTTCGG,-0.0424
6,CGAACAAG,-0.177
7,CGAAGAGC,-0.263
8,CGATAGAG,-0.0203
9,TACAATCA,0.0508
10,CGTATACA,0.241
11,CGTGCAGC,-0.00379
12,GAAGTATC,0.106
13,ACGTCATA,-0.219
14,TATCATAA,0.0598
15,AAGGTATT,-0.0118
16,GTGTAGTA,0.464
17,AGCAAGGA,-0.0326
18,GAAGCCGA,-0.0771
19,CGGCCACA,0.0248
20,AGAGCGAT,-0.371
21,GAATGCAC,0.113
22,AGTAGCTG,-0.0586
23,AATTCACC,-0.116
24,CACCTATG,0.254
25,GCGGTCAA,-0.124

row,Sequence,binding signal [E-score]
1,AGATAGCA,-0.244
2,CACCGAGC,0.277
3,ATAACGGC,-0.166
4,CTTTGCAA,-0.143
5,CGGTAAGA,-0.179
6,CAGTGGCG,-0.00848
7,AATCCCAT,-0.0224
8,AAACGCCA,-0.0442
9,AAAGCATC,-0.223
10,CATAAGGA,-0.0341
11,AAATTATA,0.0853
12,CGGCAATA,-0.149
13,TCGGGAAA,-0.0874
14,ATCTCGGC,-0.0643
15,ATGGAGGC,-0.153
16,GCGAACCC,0.174
17,AAGTCATG,-0.19
18,CCGGCCCC,-0.0787
19,GCCCAGAC,-0.115
